# Data: PMC6919601, “Identification of Plasmodium dipeptidyl aminopeptidase allosteric inhibitors by high throughput screening” (PLoS ONE, 2019)
# Hit rate of the full screen: of about 110,000 compounds, about 230 (0.21%) showed an effect of 50% or more. The list shows a part of the results.
# Target: DPAP1 (Plasmodium falciparum, UniProt Q8IIJ9)
# Test: primary screen, percent inhibition; read by cleavage of a fluorogenic dipeptide substrate; higher = more effect of the substance
# Parameters: species or system P. falciparum D10 trophozoite lysates; single well
# 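Further: 30 min substrate incubation versus DMSO and 10 µM JCP410 controls.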
# Chain of DPAP1 (Q8IIJ9 whole entry, looked up): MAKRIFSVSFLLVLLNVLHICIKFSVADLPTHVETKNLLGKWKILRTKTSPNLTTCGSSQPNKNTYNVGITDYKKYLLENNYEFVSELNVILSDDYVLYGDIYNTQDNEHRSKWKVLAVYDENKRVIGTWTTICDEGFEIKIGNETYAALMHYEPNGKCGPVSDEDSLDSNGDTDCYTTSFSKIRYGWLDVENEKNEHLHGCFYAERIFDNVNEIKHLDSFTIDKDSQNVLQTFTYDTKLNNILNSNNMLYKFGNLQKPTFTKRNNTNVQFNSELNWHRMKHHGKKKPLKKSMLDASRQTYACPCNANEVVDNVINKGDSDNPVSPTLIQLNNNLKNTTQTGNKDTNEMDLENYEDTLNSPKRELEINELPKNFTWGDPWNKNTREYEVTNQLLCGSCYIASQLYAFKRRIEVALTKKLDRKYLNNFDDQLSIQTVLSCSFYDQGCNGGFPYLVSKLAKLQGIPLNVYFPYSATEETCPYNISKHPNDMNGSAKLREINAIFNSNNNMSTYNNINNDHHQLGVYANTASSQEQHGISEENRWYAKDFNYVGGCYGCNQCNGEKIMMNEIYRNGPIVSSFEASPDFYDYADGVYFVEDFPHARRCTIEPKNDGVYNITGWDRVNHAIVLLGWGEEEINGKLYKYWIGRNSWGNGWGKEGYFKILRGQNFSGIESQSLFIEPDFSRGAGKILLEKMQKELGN
row,SMILES,% Inhibition @ 10 uM
1,Cc1oc2ccc(O)c(CN(C)C3CCN(C)CC3)c2c1C(=O)NC1CCCC1,2.14%
2,CCC(C(=O)NCc1ccccc1Cl)n1nc(C)c2c(C)n(-c3ccccc3)nc2c1=O (stereo not drawn),-1.39%
3,COCCCNC(=O)CNC(=S)N(Cc1cc(OC)c(OC)c(OC)c1)C1CCCC1,-0.406%
4,Cc1ccc(NC(=O)c2nc3ccccc3s2)cc1,5.61%
5,CCOC(=O)c1ccc(CNC(=O)Cn2c(-c3nonc3N)nc3ccccc32)o1,-2.05%
6,CCOC(=O)C1CCN(Cc2ccc(Cl)cc2Cl)CC1,4.73%
7,O=C(NCc1ccc(Cl)cc1)C(=O)NCC1CCCO1 (stereo not drawn),-1.6%
8,CCCN1CCN(CCCNC(=O)CN2C(=O)CSc3c2c(C)nn3-c2ccccc2)CC1,2.99%
9,CCOC(=O)N1CCN(CC(c2ccccc2)c2ccccc2)CC1,1.08%
10,Cc1nn(-c2ccccc2)c(C)c1NC(=O)Cc1cccs1,-0.999%
11,COc1ccc(CN2CCN(Cc3cccc(OC)c3)CC2)cc1,-1.37%
12,COc1ccc(NC(=O)c2ccc(C3SCC(=O)N3CCc3ccccc3)cc2)cc1OC (stereo not drawn),0.145%
13,O=C(O)CCC(=O)Nc1ccc(N2CCN(c3cccc(Cl)c3Cl)CC2)cc1,0.83%
14,Cc1ccc(S(=O)(=O)N(C)CC(=O)Nc2ccccc2C(N)=O)cc1,-0.872%
15,CCOc1cccc(C(=O)C2=C(O)C(=O)N(Cc3ccncc3)C2c2ccccc2)c1 (stereo not drawn),1.93%
16,COc1ccc(C2N[C@H](C(=O)O)CS2)c(OC)c1 (stereo partly drawn),0.132%
17,COc1cc(C2C3=C(O)CC(C)(C)CC3=NC(C)=C2C(=O)N2CCCCC2)cc(Cl)c1O (stereo not drawn),-2.64%
18,COC(=O)c1sccc1NC(=S)N1CCc2ccccc2C1,8.44%
19,CNC(=O)C(C)n1ccc2cc(S(=O)(=O)N3CCCC3)ccc21 (stereo not drawn),2.82%
20,OC1CCCN(Cc2ccc(F)c(Br)c2)C1 (stereo not drawn),3.9%
21,COc1ccc(CNC(=O)c2cc(=O)c3ccc(C)c(C)c3o2)cc1,-13.1%
22,O=C(c1ccncc1)C12CN3CN(CN(C3)C1)C2,0.878%
23,COc1ccc(CCNC(=O)c2cncc(NS(=O)(=O)c3ccc(C)cc3)c2)cc1OC,2.01%
24,O=C(Nc1nc2ccccc2s1)C1CCCC1,-4.86%
25,CC(C)CC(=O)NC1(C(F)(F)F)NC(=O)N(CC(C)C)C1=O (stereo not drawn),0.221%
26,COc1ccc(CCNCc2c(C(=O)O)c(C)n(Cc3cc(C)ccc3C)c2C)c(OC)c1OC,-5.49%

row,SMILES,% Inhibition @ 10 uM
1,COc1ccc(F)cc1CN1CCN(c2ncnc3sc4c(c23)CCCC4)CC1,0.884%
2,OC1CCN(Cc2ccc(C(F)(F)F)cc2)CC1,3.9%
3,O=C(O)CC(Cc1ccc(Cl)cc1)C(=O)Nc1ccccc1 (stereo not drawn),-1.98%
4,COc1cc(NC(=O)c2cc3ccccc3o2)c(OC)cc1Cl,-2.73%
5,O=C(Cc1cccs1)Nc1cccc(/C=C/C(=O)c2ccccc2)c1,-4.75%
6,O=S(=O)(c1ccc(-c2csc(Nc3cccc4ccccc34)n2)cc1)N1CCOCC1,-4.89%
7,COC(=O)c1cc(-c2cccs2)nc2ccc(Br)cc12,2.41%
8,CCOC(=O)c1sc(Nc2nc(NC(C)C)nc(NC(C)C)n2)nc1C,-3.08%
9,COc1ccc(OC)c(C2CC(c3cccs3)Nc3ncnn32)c1 (stereo not drawn),1.88%
10,Cn1c(NCCO)nc2c(c1=O)C1(CCCCC1)Cc1ccccc1-2,-2.63%
11,Cc1ccc(NC2=C(Cl)C(=O)N(Cc3ccccc3)C2=O)cc1C,-0.68%
12,Cc1ccc(S(=O)(=O)N2c3ccccc3C(C)(c3ccccc3)CC2(C)C)cc1 (stereo not drawn),1.24%
13,Cc1cc(C)c(C=C2C(=O)c3ccccc3C2=O)cc1C,-2.42%
14,CCOC(=O)N1CCC(N2CCN(c3ccccc3OCC)CC2)CC1,-2.95%
15,CCN(CC)C(=O)Cn1cc(SCC(=O)NCC2CCCO2)c2ccccc21 (stereo not drawn),0.568%
16,O=C(O)C(Cc1ccccc1)Nc1ncnc2sc3c(c12)CCC3 (stereo not drawn),-1.47%
17,Cc1ccc(C(=O)C2=C(O)C(=O)N(CC3CCCO3)C2c2ccc(F)cc2)o1 (stereo not drawn),2.3%
18,Cc1oc(-c2ccccc2F)nc1CS(=O)(=O)CC(=O)NCCN(C)C,-1.89%
19,Cc1ccc(O)c(C(=O)c2cnc3c(c2)COc2ccccc2-3)c1,0.635%
20,CC(NC(=O)C1CC(=O)N(c2ccc(Cl)cc2)C1)c1ccccc1 (stereo not drawn),16.5%
21,COc1ccc(C(=O)N2CCN(C(=O)COc3ccccc3)CC2)cc1,-4.7%
22,CCOC(=O)/C(C#N)=C\c1ccc(-c2ccc(Cl)cc2Cl)o1,-6.68%
23,CCCc1[nH]nc2c1C(c1cccc(Cl)c1)C(C#N)=C(N)O2 (stereo not drawn),-5.14%
24,CCN1CCC(NCCc2ccccc2Cl)CC1,0.565%
25,CCc1ccccc1NC(=O)CC1Sc2ccccc2NC1=O (stereo not drawn),-2.58%
26,O=C(O)c1ccc(S(=O)(=O)N2CCCCC2)cc1,18.7%

row,SMILES,% Inhibition @ 10 uM
1,CC(C)CC(C(=O)NCC#N)c1cccc(-c2cnc3ccccc3c2)c1 (stereo not drawn),-1.41%
2,O=C1CC(N2CCN(c3ncccn3)CC2)C(=O)N1c1cccc(Br)c1 (stereo not drawn),1.57%
3,CCn1c(=N)n(CC(=O)c2ccccc2)c2ccccc21,1.62%
4,CCCn1c(=N)c(C(N)=O)cc2c(=O)n3cc(C)ccc3nc21,1.97%
5,N#CC1=C(N)Oc2cc(N)ccc2C1c1ccc([N+](=O)[O-])cc1 (stereo not drawn),9.08%
6,CCOC(=O)C1=C(CC)OC(N)=C(C#N)C1c1cccc(Cl)c1 (stereo not drawn),-2%
7,Cn1ccnc1C(O)(c1ccccc1)c1ccccc1,-5.48%
8,CCN(CC)C(=O)CN(c1cc(C)ccc1C)S(C)(=O)=O,-5.88%
9,COc1ccc(C(=O)Nc2nc(-c3nnn(-c4ccc(F)c(Cl)c4)c3C)ns2)cc1,-3.79%
10,CCN1CCN(c2ncnc3[nH]cnc23)CC1,0.221%
11,Cc1ccc(C(=O)Nc2nc(C)c(C(=O)N(C)C)s2)o1,4.11%
12,Cc1ccc2onc(CNC(=O)N3C(C)CCCC3C)c2c1 (stereo not drawn),-0.264%
13,O=C(O)C1C2C=CC(C2)C1C(=O)Nc1nc2ccc(Br)cc2s1 (stereo not drawn),-3.05%
14,Cc1nc(N2CCN(C)CC2)c2c(C)c(C(=O)NCc3ccccc3Cl)sc2n1,1.88%
15,CN(Cc1cccc(O)c1)C1CCCCC1,-5.42%
16,CCOC(=O)c1c(NC=O)sc2c1CCC2,3.06%
17,CN1C(=O)C(O)(CC(=O)c2ccco2)c2ccccc21 (stereo not drawn),2.09%
18,O=C(Nc1nn2c(-c3ccccc3)nnc2s1)c1ccco1,10.7%
19,Cc1ccc(C(=O)C2=C(O)C(=O)N(c3nnc(C)s3)C2c2ccc(C(C)(C)C)cc2)cc1 (stereo not drawn),0.487%
20,COC(=O)c1cc(S(=O)(=O)N(Cc2ccco2)CC2CCCO2)c[nH]1 (stereo not drawn),-4.9%
21,CCn1c(NCc2ccccc2C)nc2ccccc21,4.8%
22,Cc1cc(Cl)nc(Cl)c1N,0.919%
23,COc1ccc(NCN2C(=O)C3C4c5ccccc5C(c5ccccc54)C3C2=O)cc1 (stereo not drawn),-21.2%
24,O=C(COc1ccccc1Cl)Nc1ccc(Cl)c(Cl)c1,-7.63%
25,O=C1CC(=O)N(CCC2=CCCCC2)C(=S)N1,1.74%
26,COc1cc(S(=O)(=O)N2CCN(c3ccccc3)CC2)c(Cl)cc1Cl,-3.95%

row,SMILES,% Inhibition @ 10 uM
1,C=CCN1C(=O)S/C(=C/c2cc(C)n(CCOC)c2C)C1=O,-1.22%
2,CCN(CC)C(=O)Cn1c(=O)cc(C(F)(F)F)c2c(C)nn(-c3cccc(Cl)c3C)c21,-2.85%
3,CC(C)Oc1ccc(N2CC(C(=O)NC3=NCCS3)CC2=O)cc1 (stereo not drawn),-3.24%
4,COc1ccc(CCC(=O)Nc2cnc3ccccc3c2)cc1,-0.0108%
5,CC(C)c1ccc(NC2=NS(=O)(=O)c3ccccc32)cc1,0.634%
6,O=C(NC1CC1)c1cc(-c2ccc(Br)cc2)nc2ccccc12,26.8%
7,O=S(=O)(c1ccc(Oc2ccccc2)cc1)N1CCCCCC1,-0.833%
8,Cc1ccc(C)n1-c1nnc(N2CCCC(C(=O)NCc3cccnc3)C2)s1 (stereo not drawn),0.828%
9,Cc1oc(/N=C/c2ccc(Cl)cc2Cl)c(C#N)c1C,-7.3%
10,O=C(Nc1ccccc1-n1cccc1)c1ccco1,6.08%
11,CCO/C(O)=C1/C(C)=Nc2nc(SCc3ccccc3)nn2C1c1ccc(C)cc1 (stereo not drawn),-1.01%
12,COc1cc(-c2nc3s/c(=C\c4ccc(Br)cc4)c(=O)n3n2)cc(OC)c1OC,-2.98%
13,CC(=O)Nc1ccc(CN2CCc3c([nH]c4ccccc34)C2)cc1,-4.61%
14,CCCN1C(=O)c2[nH]nc(-c3ccccc3O)c2C1c1ccccc1 (stereo not drawn),-3.12%
15,CCCCCCCCC(=O)c1c(C)[nH]c(C(=O)OCC)c1C,-4.08%
16,CCn1ncc(CN(C)C(=O)C23CC4CC(CC(C4)C2)C3)c1C,10.7%
17,O=S(=O)(Nc1ccc(-c2cn3cccnc3n2)cc1)c1ccc(Cl)cc1,-1.63%
18,Cc1[nH]c2ccccc2c1C1C(=O)NC(c2ccccc2)=NN1C(=O)c1ccccc1C(=O)O (stereo not drawn),14.5%
19,O=C(NCCC1=CCCCC1)c1nnc(-c2ccccc2)o1,0.974%
20,CCN(CCN(C)C)C1CCCCCCC1,-0.274%
21,Cc1ccc(OCC(=O)N2CCN(C(=O)c3cccnc3)CC2)cc1,-5.26%
22,Cc1nn(C)c(C)c1-c1c(C#N)c(N)nc2c1CCCCCC2,-1.32%
23,COc1ccc(C(=O)N[C@@H](Cc2ccc(NC(=N)N)cc2)C(=O)NCC#N)cc1,-1.41%
24,CCOC(=O)c1ccc(NC(=O)Nc2cccc(Cl)c2)cc1,4.67%
